# Data published in publication PMC4336329 (PLoS ONE, 2015).
# The campaign covered roughly 310,000 compounds. About 2,200 (0.71%) showed an effect of 50% or more. The effect is printed as a negative number. The list shows a part of the results.
# Target: human ether-à-go-go-related gene (hERG) potassium channel (human, UniProt Q12809)
# Assay: primary screen, population patch clamp on CHO cells stably expressing hERG
# human ether-à-go-go-related gene (hERG) potassium channel, sequence (Q12809 whole entry, looked up): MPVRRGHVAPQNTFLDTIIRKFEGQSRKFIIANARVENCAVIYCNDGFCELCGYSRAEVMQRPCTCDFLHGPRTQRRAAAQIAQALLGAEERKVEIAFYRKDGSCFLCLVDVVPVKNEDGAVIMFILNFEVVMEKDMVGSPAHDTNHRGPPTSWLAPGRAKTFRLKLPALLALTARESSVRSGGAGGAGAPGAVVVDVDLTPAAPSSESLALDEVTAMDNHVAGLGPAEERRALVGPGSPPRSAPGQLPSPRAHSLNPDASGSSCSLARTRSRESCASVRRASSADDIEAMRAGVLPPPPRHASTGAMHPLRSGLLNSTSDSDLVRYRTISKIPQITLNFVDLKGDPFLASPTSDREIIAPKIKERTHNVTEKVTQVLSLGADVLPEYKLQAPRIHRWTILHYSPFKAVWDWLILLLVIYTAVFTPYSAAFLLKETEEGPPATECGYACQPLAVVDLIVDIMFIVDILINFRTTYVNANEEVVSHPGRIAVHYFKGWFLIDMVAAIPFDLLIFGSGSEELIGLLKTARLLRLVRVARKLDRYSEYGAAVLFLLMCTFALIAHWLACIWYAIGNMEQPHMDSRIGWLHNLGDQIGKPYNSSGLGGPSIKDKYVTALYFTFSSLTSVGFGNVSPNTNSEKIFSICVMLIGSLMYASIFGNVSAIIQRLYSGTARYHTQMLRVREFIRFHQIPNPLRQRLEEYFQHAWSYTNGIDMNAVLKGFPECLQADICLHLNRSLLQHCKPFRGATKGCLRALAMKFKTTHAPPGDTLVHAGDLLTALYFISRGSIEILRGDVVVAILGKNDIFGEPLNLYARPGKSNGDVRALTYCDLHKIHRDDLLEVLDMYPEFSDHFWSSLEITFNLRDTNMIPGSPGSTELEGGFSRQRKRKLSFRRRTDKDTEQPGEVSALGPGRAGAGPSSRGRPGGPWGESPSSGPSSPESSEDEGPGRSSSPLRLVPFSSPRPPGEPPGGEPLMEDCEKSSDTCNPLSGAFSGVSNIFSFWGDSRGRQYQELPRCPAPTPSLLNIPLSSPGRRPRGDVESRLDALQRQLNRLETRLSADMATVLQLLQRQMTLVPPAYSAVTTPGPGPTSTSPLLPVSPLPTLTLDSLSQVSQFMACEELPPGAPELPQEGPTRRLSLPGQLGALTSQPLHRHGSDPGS
row,Structure (SMILES),"hERG current change (%, negative = inhibition) at 1uM [%]"
1,COc1ccc2c(c1)CCN(C(=O)CCl)C2C1C(=O)CCCC1=O (centres unmarked),4.23
2,CSCCC(=O)N1CCN(CC(=O)N2CCCC2)CC1,11.8
3,Cc1ccc(S(=O)(=O)N2CCN(CC(=O)N/N=C\c3cccnc3)CC2)cc1,15.4
4,CC(C)Cc1nnc(NC(=O)C2CCCC2)s1,11.5
5,COc1cc(/C=C(/NC(C)=O)C(=O)O)cc(Cl)c1OCc1ccc(Br)cc1,-4.77
6,Cc1cccc(N=C2C(=O)Nc3c(Cl)cccc32)c1,23.2
7,c1ccc(CCn2nnnc2CN2CCc3ccccc32)cc1,8.2
8,O=C(c1ccc(Cl)s1)N1CCc2ccccc21,0.572
9,Cc1ccc(NC(=O)Nc2ccc3c(c2)N(C)C(=O)CS3)nc1,-5.11
10,NS(=O)(=O)c1ccc(CCNC(=O)c2ccncc2)cc1,14.4
11,O=S(=O)(NCc1ccccn1)c1ccc2c(c1)OCCO2,8.68
12,C=CCc1cc(/C=C2/NC(=O)N(CC)C2=O)cc(OCC)c1OCc1ccc(C(=O)O)cc1,7.07
13,CCOc1cc2oc(=O)c3c(c2cc1Cl)CCC3,10.5
14,CCC(C)Sc1ccc([C@@H]2[C@H]3C(=O)N(CC)C(=O)[C@H]3[C@]3(C(=O)OC)CCCN23)cc1OC.O=C(O)C(F)(F)F (some centres unmarked),-11.8
15,COc1cc(/C=N/NC(=O)CCOc2ccccc2C)cc(Br)c1O,12.3
16,CC(C)[C@H](NC(N)=O)C(=O)NCCc1ccc(Cl)cc1Cl,-10.1
17,Cc1ccccc1N(CC(=O)NC(C)(C)C)C(=O)c1ccc(-c2ccccc2)[nH]1,3.83
18,Cc1ccc(NC(=O)Cn2nnc(-c3ccc4c(c3)OCO4)n2)cc1F,13.6
19,O=C(COC(=O)c1cccs1)NCc1ccco1,6.46
20,COc1ccc(OCCOC(=O)CCS(=O)(=O)c2ccc(C)cc2)cc1,14.9
21,COc1cccc(-c2nnc(SCC(=O)OC(C)C)n2Cc2ccco2)c1,2.84
22,COc1ccc(C(=O)OCC(=O)Nc2nnc(-c3ccccc3)o2)cc1,9.9
23,Cc1ccc(C(=O)NCCN2CCOCC2)c(Cl)c1,4.75

row,Structure (SMILES),"hERG current change (%, negative = inhibition) at 1uM [%]"
1,O=C(CSc1nc(O)c(Cc2ccccc2)c(=O)[nH]1)Nc1ccccc1,6.66
2,COc1ccc(C)cc1NC(=O)C(OC(=O)CNC(=O)c1cccc(F)c1)c1ccccc1 (centres unmarked),5.22
3,COC1C(C)=C(C)C(=O)N1Cc1ccccc1 (centres unmarked),13.4
4,CCOC(=O)c1sc(NC(=O)CN(CC)CC)c(C(=O)OCC)c1C,14.6
5,NC1=NC(=O)C2(COC(c3cccc([N+](=O)[O-])c3)OC2)S1 (centres unmarked),-7.09
6,O=C(Nc1ccc(Cl)cc1)c1ccc2c(c1)S(=O)(=O)c1ccccc1C2=O,8.33
7,Cc1ccccc1S(=O)(=O)Nc1nc2ccccc2nc1Cl,10.2
8,Cc1ccccc1OCC(=O)OCC(=O)c1ccc[nH]1,10.2
9,COC(=O)CN(c1ccc(OC)cc1)S(=O)(=O)c1c(C)noc1C,10.6
10,Cc1ccccc1NC(=S)NNC(=O)c1csc2c1CCC(C)C2 (centres unmarked),10.4
11,Cc1ccccc1Oc1ccc(NC(=O)C2CC=CCC2C(=O)O)cc1 (centres unmarked),9.4
12,C/C(=N\NC(=O)c1ccc(CN2CCOCC2)cc1)c1ccc(NC(=O)c2ccccc2)cc1,9.2
13,C=CCn1c(N)c(C(=O)NCc2ccco2)sc1=S,3.13
14,CN1CCc2nc(SCC(=O)Nc3cccc(F)c3)c(C#N)c(-c3cccs3)c2C1,-8.28
15,CCC(=O)N(CC)c1nc(-c2ccc(OC)cc2)cs1,8.42
16,O=C(Nc1ccc(Cl)cc1)N1CCc2[nH]c3ccccc3c2C1,-11.3
17,CN(C)/C=N/c1nc(Sc2ccc(C(F)(F)F)cc2[N+](=O)[O-])n[nH]1,4.55
18,CCNC(=O)c1c(O)c2cccc3c2n(c1=O)CC3,11.9
19,COCc1cc(C)nc2sc(C(=O)NCCO)c(-n3cccc3)c12,16.1
20,COc1cccc(CNC(=O)CCC2CCCN(Cc3cc(Cl)ccc3O)C2)c1 (centres unmarked),-20
21,Cc1ccc(NC(=O)c2nc[nH]c2C(=O)N[C@@H](C)C(=O)OC(C)(C)C)cc1,14.5
22,C=CCN(C(=O)c1oc2c(Cl)cc(C)cc2c1C)C1CCS(=O)(=O)C1 (centres unmarked),2.56
23,COc1ccc(C(=O)N2CCN(C(=O)Cc3ccccc3)CC2)cc1OC,12.5

row,Structure (SMILES),"hERG current change (%, negative = inhibition) at 1uM [%]"
1,Cc1ccc(OCCCC(=O)NCc2ccco2)cc1,13.7
2,O=C(Nc1cccc(Cl)c1)NC1CCCCC1,-1.95
3,O=C1c2cccnc2C(Nc2ccc(Br)cc2Br)N1Cc1cccs1 (centres unmarked),1.49
4,Cc1cc(C)c(C#N)c(SCC(=O)Nc2nonc2N)n1,8.17
5,O=C(Nc1ccc2c(c1)OCO2)c1cn(Cc2ccc(F)cc2)nn1,19.9
6,O=C(CCl)N(CCCNC(=O)C(F)(F)F)c1ccc([N+](=O)[O-])cc1,10.3
7,COc1cccc(C2[C@H](C)C3(CCN2C)OCCO3)c1.Cl (some centres unmarked),15.6
8,O=C(COC(=O)CNC(=O)c1ccc(Br)o1)Nc1ccc2c(c1)OCCO2,1.57
9,CCOc1ccc(S(=O)(=O)N2CCC(C(=O)NCc3ccccn3)CC2)cc1,-3.27
10,O=C(Oc1ccc(C(=S)N2CCOCC2)cc1)c1ccc(F)cc1,14.5
11,Cc1nnc2n(-c3ccccc3)c(=O)c3c4c(sc3n12)COC(C(C)C)C4 (centres unmarked),9.92
12,CCC[C@@H](CN[C@@H](CNC)C(C)C)NCCCCc1ccccc1,3.77
13,NS(=O)(=O)c1ccc(-c2ccc(C=C3C(=O)c4ccccc4C3=O)o2)cc1,13.6
14,CC[C@H](C)[C@@H](C(=O)NCCCCCCCCCCC(=O)N1CCNCC1)n1cc(CCCCCN)nn1,16.7
15,O=C(CCn1cncn1)N1CCCC(N2CCN(c3ccc(F)cc3)CC2)C1 (centres unmarked),8.37
16,O=C(c1ccc(COc2ccc(F)cc2)o1)n1cc(Br)cn1,9.35
17,O=C(COC(=O)C1Cc2ccccc2CN1C(=O)c1ccccc1)Nc1ccc(SC(F)F)cc1 (centres unmarked),-5.74
18,COc1ccc(Oc2coc3c(CN(C)C)c(O)ccc3c2=O)cc1,14.7
19,CCN(NC(=O)C(O)(c1ccc(F)cc1)c1ccc(F)cc1)C(=O)c1ccccc1,12.4
20,COC(=O)C1=C(N)Oc2cc(C)n(Cc3ccco3)c(=O)c2C1c1cccc(Cl)c1 (centres unmarked),7.31
21,Cn1ncc([N+](=O)[O-])c1C(=O)Nc1ccc(Cl)cc1,16.4
22,CCCCN1C(=O)/C(=c2\sc3nc(=O)c(-c4ccccc4)nn3c2=O)c2ccccc21,5.25
23,Cn1c(CCNC(=O)c2ccccc2F)nnc1SCC(=O)Nc1nncs1,15.3

row,Structure (SMILES),"hERG current change (%, negative = inhibition) at 1uM [%]"
1,O=C(OC(C(=O)NC1CCCCC1)c1ccccn1)c1cccs1 (centres unmarked),12.6
2,CC(=O)NC(NC(=S)Nc1ccc(S(N)(=O)=O)cc1)C(Cl)(Cl)Cl (centres unmarked),11.6
3,Cc1ccccc1NC(=O)Cc1nc(-c2c[nH]c(C(=O)N3CCCC3)c2)cs1,11.8
4,Cn1c2c(c(=O)n(C)c1=O)[C@@H]1c3c(ccc4ccccc34)OC[C@@H]1CO2,10.7
5,Cc1[nH]n(-c2ccccc2)c(=O)c1C=Nc1ccc(S(=O)(=O)N=C(N)N)cc1,16.6
6,Cl.Clc1ccc(NCc2ccsc2)cc1,19.5
7,N#CC1=C(N)Oc2c(ccc3cccnc23)C1c1ccccc1 (centres unmarked),6.62
8,CC(C)c1ccc(CNc2ccc([N+](=O)[O-])cn2)cc1,9.11
9,COc1cc(O)oc1C=Nc1ccc(C(=O)O)cc1,9.92
10,S=c1[nH]nc(NCCc2ccccc2)s1,7.64
11,CC(C)n1c(SCC(=O)NCc2ccco2)nnc1C1CC1,5.89
12,COC(=O)c1ccc(OC(=O)CN2C(=O)c3ccccc3C2=O)cc1,16.6
13,COc1ccc(C(=O)Nc2ccc(N3CCCC3)cc2)cc1Br,9.05
14,CCNc1nc(NC(C)C)nc(Nn2cnnc2)n1,-1.26
15,CC1(C)C(C(=O)N2CCN(c3ccc(Cl)cc3)CC2)C1(C)C,2.98
16,Cn1c(=O)[nH]c(=O)c2c1nc(SCC(=O)Nc1ccccc1)n2Cc1ccccc1,7.34
17,CC(=O)Nc1ccc(C(=O)NC(CC(=O)O)c2ccc(Cl)cc2)cc1 (centres unmarked),5.92
18,COC(=O)[C@@H]1C[C@@]2(O)[C@H](O)[C@H](O)[C@H](O)C[C@H]2N1Cc1ccc(C(F)(F)F)cc1,12.2
19,CNc1ccc(/C=C2\CSc3ccccc3C2=O)cc1[N+](=O)[O-],3.42
20,COc1cccc(N2CCN(C(=O)c3nc4nc(C)cc(C)n4n3)CC2)c1,8.37
